# Experimental data as given in PubChem BioAssay AID2546 (National Center for Advancing Translational Sciences (NCATS), 2010).
# Screen size: about 310,000 compounds; about 11,000 (3.5%) were called active. About 8% were inconclusive and are not listed. Calls follow the shape of the dose curve; as a rule, active = well fitted inhibition curve with a large enough effect; inconclusive = small, poorly fitted or top-dose-only effect, or effect the other way; inactive = flat fitted curve, though single readings scatter. Only a part is listed here, and it is no random draw.
# Assay: VP16 counterscreen qHTS for inhibitors of ROR gamma transcriptional activity;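 also: Gal4-VP16 expression switched on by copper sulfate through the metallothionein promoter; nearly all actives have a fitted effect of over 50% in size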
# Conditions: Drosophila S2 Gal4-VP16 UAS-luciferase, luminescence, 20 h; series mostly up to 53.6 µM; activity, negative = inhibition: at the top concentration
# Excerpt: NIH Molecular Libraries Probe Production Network [MLPCN]
# NIH Chemical Genomics Center [NCGC]
# Assay Provider: Dan Littman, New York University
# The retinoic acid-related orphan receptor (ROR) gamma is a transcription factor that has a central role in the differentiation of Th17 cells, a subset of T helper cells that secrete the inflammatory cytokines IL-17, IL-17F, and IL-22. Th17 cells have been implicated in graft versus host disease, autoimmune disease and asthma. ROR gamma is induced in naive T helper cells in the presence of TGF-beta combined with IL-6, IL-21, or IL-23, and thereafter directs the expression of the Th17 lineage cytokines. To identify nonspecific inhibitors, a Drosophila Schneider cell line was stably transfected with two vectors: a gene expressing a fusion of the Gal4 DNA binding domain and VP16 transactivation domain under the control of the metallothionine promoter and a Photinus luciferase reporter regulated by the Gal4 binding site enhancer, UAS. […] Small molecule inhibitors that inhibit components common to the RORgt and VP16 assays, such as the Gal4 DNA binding domain or the UAS luciferase reporter, will be active in both assays and thus scored as nonspecific.
# For screening, 600 cells in 4 uL/well were dispensed into white solid 1536-well plates (Grenier) using a solenoid-based dispenser. Following transfer of 23 nL compound or DMSO vehicle by a pin tool, the plates were incubated 1 hr at ambient temperature, and 1 uL/well copper sulfate (700 uM final concentration) was added. The plates were centrifuged 15 s at 1000 RPM and incubated 20 hr at ambient temperature. After addition of 1.5 uL Photinus luciferase detection reagent, the plates were incubated 10 min at ambient temperature and then read by a ViewLux (Perkin Elmer) to detect luminescence.
# % is scaled to controls: 0 for no effect and ±100 for the full control effect; potency is read from the fitted curve at half-maximal effect.
Structure (SMILES),"activity, negative = inhibition",Potency
C/C=C(/C)C(=O)OC1Cc2c(ccc3ccc(=O)oc23)OC1(C)C (stereo not given),inactive: 9.01%,
Cc1cccc(C(=O)NN/C=C/C(=O)c2ccccc2)c1,,active: 5.01 µM
CC(=O)N1[C@H](C)C=C[C@]1(Cc1ccccc1)C(=O)NCc1cc(F)cc(C(F)(F)F)c1,inactive: 8.7%,
CC1=C(CC(=O)O)c2cc(F)ccc2/C1=C/c1ccc(S(C)=O)cc1 (stereo not given),inactive: 4.33%,
OCCN1CCN(CC/C=C2\c3ccccc3Sc3ccc(C(F)(F)F)cc32)CC1,inactive: 5.47% [at 17 µM],
COc1ccc(C2/C=C\CN(C(=O)C3CC3)[C@H](Cc3ccccc3)C(=O)N2Cc2ccc(F)cc2)cc1 (stereo not given in full),inactive: -19.7%,
COC(=O)Nc1nc2ccc(Sc3ccccc3)cc2[nH]1,,inactive
CCOC(=O)Cc1csc(NC(=O)/C=C\c2ccccc2Cl)n1,inactive: -29.9%,
N[C@@H](Cc1c[nH]c2ccc(O)cc12)C(=O)O,inactive: -8.42%,
CCCCCCCCCCCCCCCC(O)C(N)CO (stereo not given),inactive: -5.72%,
COc1ccc(Br)cc1[C@H]1[C@@H]2C=CCC[C@@]2(C)C(=O)N1Cc1ccccc1,inactive: -9.04%,
Cc1cc(C)nc(NS(=O)(=O)c2ccc(N/C=C/C(=O)c3ccc(Cl)cc3)cc2)n1,inactive: -28.6%,
COc1ccc([C@H]2CC(=O)c3c(O)cc(O)cc3O2)cc1O,inactive: 8.81%,
COc1cc(OC)c2c(-c3ccccc3)cc(=O)oc2c1C(CCN1CCCCC1)c1ccc2c(c1)OCO2 (stereo not given),inactive: -0.296%,
O=C(O)/C(=C1/OC(=O)c2ccccc21)c1ccccc1,inactive: -1.73%,
O=C(Nc1ccc(-c2nc3ccccc3s2)cc1)C1=COCCO1,,active: 4.47 µM
O=C(O)c1cccc(-n2cccc2/C=C/[N+](=O)[O-])c1,inactive: 5.78%,
Cc1c2oc3c(C)ccc(C(=O)N[C@@H]4C(=O)N[C@@H](C(C)C)C(=O)N5CCC[C@@H]5C(=O)N(C)CC(=O)N(C)[C@@H](C(C)C)C(=O)O[C@H]4C)c3nc-2c(C(=O)N[C@@H]2C(=O)N[C@@H](C(C)C)C(=O)N3CCC[C@@H]3C(=O)N(C)CC(=O)N(C)[C@@H](C(C)C)C(=O)O[C@H]2C)c(N)c1=O,inactive: -4.61%,
O=C(Nc1ccc2c(c1)OCCO2)C(=O)c1c[nH]c2ccccc12,,active: 3.16 µM
NNC(=O)[C@H]1C[C@@H]1c1ccccc1,inactive: -6.06%,
CN1CCCC[C@@H]1CCN1c2ccccc2Sc2ccc(S(C)=O)cc21 (stereo not given in full),inactive: 2.27% [at 17 µM],
CCN1C(=S)N[C@@H](CCc2ccccc2)[C@H](C(=O)OC)[C@H]1C,inactive: -15.7%,
O=C(NC1CC1)C1=C[C@H](C2CCCCC2)C[C@H](OCc2ccc(CO)cc2)O1,inactive: 2.47%,
c1ccc2sc(SSc3nc4ccccc4s3)nc2c1,inactive: -4.99%,
Nc1ccccc1C(=O)NNc1ncc(C(F)(F)F)cc1Cl,,active: 1 µM
